Our source for the yeast fitness gain values is the supplement of paper PMC11741623.

Common to all, as to assay: yeast fitness gain over the viral ORF with no human partner (scaled fitness); higher = more likely to interact
One assay has as its target SARS-CoV-2 M. The protocol:
(§1)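 Split mouse DHFR complementation in pooled diploid yeast: human ORFeome clones carry one fragment and viral ORFs the other; barcoded lineages compete in 1 µg/mL methotrexate and fitness is read by barcode sequencing in up to three cultures.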

In a further assay the target is SARS-CoV-2 N. On the procedure: as §1
Another assay addresses SARS-CoV-2 NSP1. The protocol: as §1
A further assay addresses SARS-CoV-2 NSP10. On the procedure: as §1
The target of another assay is SARS-CoV-2 NSP12. On the procedure: as §1
The target of the next assay is SARS-CoV-2 NSP13. On the procedure: as §1
The target of a further assay is SARS-CoV-2 NSP16. On the procedure:
as §1

For the next assay, the target named is SARS-CoV-2 NSP2. On the procedure: as §1
The target in another assay is SARS-CoV-2 NSP5. On the procedure: as §1
The target of the next assay is SARS-CoV-2 NSP6. On the procedure:
as §1

For the next assay, the target named is SARS-CoV-2 NSP7. The protocol: as §1
The next assay has as its target SARS-CoV-2 NSP9. On the procedure:
as §1

The target in another assay is SARS-CoV-2 ORF10. The protocol: as §1
The next assay has as its target SARS-CoV-2 ORF3A. On the procedure: as §1
The target in another assay is SARS-CoV-2 ORF3B. The protocol:
as §1

For a further assay, the target named is SARS-CoV-2 ORF6. The protocol:
as §1

Another assay addresses SARS-CoV-2 ORF7A. On the procedure: as §1
The next assay concerns the target SARS-CoV-2 ORF7B. On the procedure:
as §1

The target of another assay is SARS-CoV-2 ORF8. The protocol: as §1
The target of a further assay is SARS-CoV-2 ORF9B. The protocol:
as §1

For the next assay, the target named is SARS-CoV-2 S. The protocol: as §1
The target in the next assay is SARS-CoV-2 NSP8. On the procedure:
as §1

In another assay the target is SARS-CoV-2 NSP14. On the procedure:
as §1

In the next assay the target is SARS-CoV-2 NSP15. The protocol:
as §1

The next assay has as its target SARS-CoV-2 NSP4. On the procedure: as §1
For assay [1], the target named is SARS-CoV-2 ORF9Bwu (the 73-codon ORF). On the procedure: as §1

Some of the results follow. Interaction screen of human proteins with wild-type SARS-CoV-2 proteins by split-DHFR complementation in yeast, 1 µg/mL methotrexate. Value = fitness of the pair (three or more lineages) minus that of the viral protein without a human partner, on a scale set by negative (0) and fused positive (1) controls, mean of up to three cultures; higher = more likely to interact. Active = false discovery rate below 0.05 (one-sided t-test) in at least one culture. Nearly all pairs are not hits, and differences among them are mostly noise (correlation between cultures about 0.3); most hits were seen in one culture only. Human sequences are the Swiss-Prot entries looked up by gene name; the clone may be another isoform. NSP2 values were corrected by the authors for a growth advantage. Listed are human proteins with a hit and a random twelfth of the others.

B1: NANOS2, P60321 (protein)
chain: MQLPPFDMWKDYFNLSQVVWALIASRGQRLETQEIEEPSPGPPLGQDQGLGAPGANGGLGTLCNFCKHNGESRHVYSSHQLKTPDGVVVCPILRHYVCPVCGATGDQAHTLKYCPLNGGQQSLYRRSGRNSAGRRVKR
For B1, the yeast fitness gain is inactive: -0.056 with SARS-CoV-2 M; inactive: -0.0733 with SARS-CoV-2 N; inactive: -0.203 with SARS-CoV-2 NSP1; inactive: 0.0998 with SARS-CoV-2 NSP10; inactive: 0.0999 with SARS-CoV-2 NSP12; inactive: 0.0183 with SARS-CoV-2 NSP13. The yeast fitness gain with SARS-CoV-2 NSP16 was inactive: 0.11; in the assay with SARS-CoV-2 NSP2, inactive: -0.11; with SARS-CoV-2 NSP5, inactive: -0.0693; in the assay with SARS-CoV-2 NSP6, inactive: -0.116; with SARS-CoV-2 NSP7, inactive: 0.00228; in the assay with SARS-CoV-2 NSP9, inactive: -0.0283. Also, the yeast fitness gain is inactive: 0.0399 with SARS-CoV-2 ORF10; inactive: -0.0455 with SARS-CoV-2 ORF3A; inactive: 0.0262 in the assay with SARS-CoV-2 ORF3B; inactive: -0.0159 with SARS-CoV-2 ORF6; inactive: -0.0568 with SARS-CoV-2 ORF7A; inactive: -0.0522 with SARS-CoV-2 ORF7B. For the same molecule, the yeast fitness gain with SARS-CoV-2 ORF8 was inactive: -0.0081; in the assay with SARS-CoV-2 ORF9B, inactive: -0.196; with SARS-CoV-2 S, inactive: 0.023.

B2: BCAS2, O75934 (protein)
chain: MAGTGLVAGEVVVDALPYFDQGYEAPGVREAAAALVEEETRRYRPTKNYLSYLTAPDYSAFETDIMRNEFERLAARQPIELLSMKRYELPAPSSGQKNDITAWQECVNNSMAQLEHQAVRIENLELMSQHGCNAWKVYNENLVHMIEHAQKELQKLRKHIQDLNWQRKNMQLTAGSKLREMESNWVSLVSKNYEIERTIVQLENEIYQIKQQHGEANKENIRQDF
In the case of B2, the yeast fitness gain with SARS-CoV-2 M is inactive: -0.0927; in the assay with SARS-CoV-2 NSP10, inactive: 0.0303; with SARS-CoV-2 NSP13, inactive: -0.172; with SARS-CoV-2 NSP16, inactive: -0.0014; in the assay with SARS-CoV-2 NSP2, inactive: -0.261; with SARS-CoV-2 NSP8 it was inactive: -0.00417. For the same molecule, the yeast fitness gain in the assay with SARS-CoV-2 ORF10 was inactive: 0.0998; with SARS-CoV-2 ORF3B, inactive: -0.139; in the assay with SARS-CoV-2 ORF6 it was inactive: -0.0561; in the assay with SARS-CoV-2 ORF7A, inactive: -0.0322; with SARS-CoV-2 ORF8, inactive: -0.0436; with SARS-CoV-2 ORF9B, inactive: 0.0286. Moreover, the yeast fitness gain in the assay with SARS-CoV-2 S was inactive: -0.0506.

B3: TTYH1, Q9H313 (protein)
chain: MGAPPGYRPSAWVHLLHQLPRADFQLRPVPSVFAPQEQEYQQALLLVAALAGLGLGLSLIFIAVYLIRFCCCRPPEPPGSKIPSPGGGCVTWSCIVALLAGCTGIGIGFYGNSETSDGVSQLSSALLHANHTLSTIDHLVLETVERLGEAVRTELTTLEEVLEPRTELVAAARGARRQAEAAAQQLQGLAFWQGVPLSPLQVAENVSFVEEYRWLAYVLLLLLELLVCLFTLLGLAKQSKWLVIVMTVMSLLVLVLSWGSMGLEAATAVGLSDFCSNPDPYVLNLTQEETGLSSDILSYYLLCNRAVSNPFQQRLTLSQRALANIHSQLLGLEREAVPQFPSAQKPLLSLEETLNVTEGNFHQLVALLHCRSLHKDYGAALRGLCEDALEGLLFLLLFSLLSAGALATALCSLPRAWALFPPSDDYDDTDDDDPFNPQESKRFVQWQSSI
B3: the yeast fitness gain with SARS-CoV-2 M was inactive: -0.00692; in the assay with SARS-CoV-2 NSP10 it was inactive: 0.0177; with SARS-CoV-2 NSP12, inactive: 0.11; in the assay with SARS-CoV-2 NSP13, inactive: 0.0859; with SARS-CoV-2 NSP14, inactive: 0.143; with SARS-CoV-2 NSP15 it was inactive: 0.114. Also, the yeast fitness gain in the assay with SARS-CoV-2 NSP16 was inactive: -0.0369; in the assay with SARS-CoV-2 NSP2, active: 0.568; with SARS-CoV-2 NSP4, inactive: -0.057; in the assay with SARS-CoV-2 NSP5, inactive: 0.0132; with SARS-CoV-2 NSP6, inactive: 0.0645; with SARS-CoV-2 NSP7, inactive: 0.191. In addition, the yeast fitness gain with SARS-CoV-2 ORF10 is inactive: 0.0924; with SARS-CoV-2 ORF3A, inactive: 0.0109; with SARS-CoV-2 ORF3B it was inactive: 0.00549; with SARS-CoV-2 ORF6 it was inactive: 0.0604; with SARS-CoV-2 ORF7A, inactive: -0.167; in the assay with SARS-CoV-2 ORF8 it was inactive: 0.0182. Also, the yeast fitness gain with SARS-CoV-2 ORF9B was inactive: 0.0405; in assay [1] it was inactive: -0.103; with SARS-CoV-2 S, inactive: -0.207.

B4: CEP19, Q96LK0 (protein)
chain: MMCTAKKCGIRFQPPAIILIYESEIKGKIRQRIMPVRNFSKFSDCTRAAEQLKNNPRHKSYLEQVSLRQLEKLFSFLRGYLSGQSLAETMEQIQRETTIDPEEDLNKLDDKELAKRKSIMDELFEKNQKKKDDPNFVYDIEVEFPQDDQLQSCGWDTESADEF
Turning to B4, the yeast fitness gain with SARS-CoV-2 M is inactive: 0.00235; with SARS-CoV-2 NSP10, inactive: -0.0648; with SARS-CoV-2 NSP13, inactive: -0.216; in the assay with SARS-CoV-2 NSP2, inactive: -0.191; with SARS-CoV-2 NSP6 it was inactive: 0.0521; in the assay with SARS-CoV-2 ORF10, inactive: -0.00333. Besides, the figures for the yeast fitness gain in the assay with SARS-CoV-2 ORF9B and with SARS-CoV-2 S were inactive: -0.158 and inactive: -0.137, respectively.

B5: MESP2, Q0VG99 (protein)
chain: MAQSPPPQSLLGHDHWIFAQGWGWAGHWDSTSPASSSDSSGSCPCDGARGLPQPQPPSCSSRAAEAAATTPRRARTGPAGGQRQSASEREKLRMRTLARALHELRRFLPPSLAPAGQSLTKIETLRLAIRYIGHLSAVLGLSEESLQCRRRQRGDAGSPWGCPLCPDRGPAEAQTQAEGQGQGQGQGQGQGQGQGQGQGQGQGQGRRPGLVSAVLAEASWGSPSACPGAQAAPERLGRGVHDTDPWATPPYCPKIQSPPYSSQGTTSDASLWTPPQGCPWTQSSPEPRNPPVPWTAAPATLELAAVYQGLSVSPEPCLSLGAPSLLPHPSCQRLQPQTPGRCWSHSAEVVPNSEDQGPGAAFQLSEASPPQSSGLRFSGCPELWQEDLEGARLGIFY
For the molecule B5, the yeast fitness gain in the assay with SARS-CoV-2 M is inactive: -0.00373; in the assay with SARS-CoV-2 NSP10 it was inactive: 0.566; in the assay with SARS-CoV-2 NSP12, inactive: 0.285; in the assay with SARS-CoV-2 NSP13 it was active: 0.809; with SARS-CoV-2 NSP14, inactive: 0.927; with SARS-CoV-2 NSP2, inactive: 0.853. The yeast fitness gain with SARS-CoV-2 NSP4 was inactive: 0.802; with SARS-CoV-2 NSP5 it was inactive: -0.586; with SARS-CoV-2 NSP6 it was inactive: -0.399; with SARS-CoV-2 NSP7, inactive: -0.333; with SARS-CoV-2 NSP8 it was inactive: -0.0679; in the assay with SARS-CoV-2 NSP9 it was inactive: -0.131. For the same molecule, the yeast fitness gain in the assay with SARS-CoV-2 ORF10 is inactive: 0.242; with SARS-CoV-2 ORF3B, inactive: 0.141; with SARS-CoV-2 ORF6, inactive: -0.133; with SARS-CoV-2 ORF7A it was inactive: 0.41; with SARS-CoV-2 ORF8, inactive: -0.05; with SARS-CoV-2 ORF9B it was inactive: 0.528. The yeast fitness gain with SARS-CoV-2 S was inactive: -0.0346.
